From US9688624B2, “DP2 antagonist and uses thereof” (Brickell Biotech, Inc., priority 2010, dated 2017)

Target: CYP2C9 (Homo sapiens (Human), UniProt P11712)
Format: in vitro ADME
Conditions: 10 μM, human hepatocytes, compared to native cells

## COc1ccc(CC(=O)O)cc1Oc1ccc(NC(=O)C(C)(C)C)cc1CSC(C)(C)C [Compound 1, 2-(3-(2-((tert-butylthio)methyl)-4-(2,2-dimethyl-propionylamino)phenoxy)-4-methoxyphenyl)acetic acid]
  fold increase in 4-hydroxydiclofenac (CYP2C9) production: 0.5 fold
